PubChem BioAssay AID1508623 (National Center for Advancing Translational Sciences (NCATS), 2021)
Among all 48,000 compounds or so, about 450 (0.94%) were called active. Roughly 19% stayed inconclusive and do not appear here. Calls come from the whole dose curve; as a rule, active = well fitted inhibition curve with a large enough effect; inconclusive = small, poorly fitted or top-dose-only effect; inactive = no such curve, though single readings can be large or run the other way. The list shows a part of the results.

Assay: Primary qHTS for Identification of Small Molecule Inhibitors of Huntingtin Promoter Activity; note: nearly all actives have a fitted effect of over 50% in size
Details: HEK293 HTT promoter firefly luciferase reporter (activity 0% = vehicle and -100% = no light), 24 h; series mostly up to 57.5 µM; activity change, negative = inhibition: at the top concentration
How it was run: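 Firefly luciferase signal from promoter-reporter HEK293 cells was scaled between vehicle (0%) and zero RLU (-100%). Compounds were tested at final concentrations of up to 57.5 uM over 24 h at 37 degrees C. PTC124 at 50 uM final served as control inhibitor.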

SMILES | activity change, negative = inhibition
COc1ccc(-c2ccc(NS(=O)(=O)c3cccc(C)c3)cc2)nn1 | inactive: -26.2%
COc1ccc(CCNC(=O)C2CCN(c3nc4ccccc4nc3C(F)(F)F)CC2)c(OC)c1 | inactive: -9.12%
Cc1ccc(C)c(CN2C(=O)C3(c4ccccc42)N(c2ccc(Cl)cc2)C(=O)CS3(=O)=O)c1 (stereo not given) | inactive: -12.4%
CC(=O)N1c2ccccc2CC1C(=O)NCc1cccc(Cl)c1 (stereo not given) | inactive: 7.71%
CC(=O)OCC(=O)[C@@]1(O)CC[C@H]2[C@@H]3CCC4=CC(=O)CC[C@]4(C)[C@H]3C(=O)C[C@@]21C | inactive: 2.76%
Cc1cccc(NC(=O)CSc2nc(-c3ccccc3Cl)nc3c2Cc2c(CO)cnc(C)c2O3)c1C | inactive: -12.6%
COc1ccc(CCNc2nc3c(-c4cccc(F)c4)nnn3c3ccccc23)cc1OC | inactive: 12.8%
CC1CCN(c2nc3c(S(=O)(=O)c4ccc(Cl)cc4)nnn3c3ccsc23)CC1 | inactive: 4.44%
CCc1ccccc1NC(=O)c1ccc(CN2C(=O)CCn3nc(C)cc32)cc1 | inactive: 6.09%
Cc1ccccc1NC(=O)CSc1cn(CC(=O)N(C(C)C)C(C)C)c2ccccc12 | inactive: -21.6%
COc1cc2c(cc1OC)n(Cc1ccc([N+](=O)[O-])cc1)c(=O)n1nc(-c3ccccc3)nc21 | inactive: -8.51%
COc1cc(C(=O)N2CCOCC2)cc(OC)c1OC | inactive: -3.71%
COc1cc2c(cc1OC)C(COc1ccc3c(C)cc(=O)oc3c1)N(C(=O)c1ccccc1F)CC2 (stereo not given) | inactive: -3.98%
Cc1ccc(CNC(=O)CCNS(=O)(=O)c2cccc3nsnc23)cc1 | inactive: -9.11%
CCn1cc(C(=O)N(C)c2ccc(C(C)C)cc2)c2cc(OC)c(OC)cc2c1=O | inactive: -26%
Cc1c(CCC(=O)N2CCCCC2)c(=O)oc2cc3occ(C(C)(C)C)c3cc12 | inactive: -10.1%
Cc1ccc2nc(NC(=O)CSc3ncc(C(=O)Nc4ccc(F)cc4)c(=O)n3C)sc2c1 | inactive: 11.2%
COCCn1cc(C(=O)NCCCOC(C)C)c2c3ccccc3n(C)c2c1=O | inactive: 10.1%
Cc1ccc(Cc2nc3ccccc3nc2SCC(=O)N2CCN(c3ccc(F)cc3)CC2)cc1 | inactive: -6.31%
CCOC(=O)c1noc2nc(C)n(Cc3cccc([N+](=O)[O-])c3)c(=O)c12 | inactive: -6.35%

SMILES | activity change, negative = inhibition
CCc1ccc(-n2nc(C)c3c(C)cc(=O)n(CC(=O)Nc4ccc(F)cc4C)c32)cc1 | inactive: -6.91%
CCOC(=O)Cn1c(=O)n(C2CCCCC2)c2nc(-c3ccc(C(C)C)cc3)nc(C(N)=O)c21 | inactive: -7.06%
Cc1ccc2c(CN3CCN(C(=O)c4ccc(Br)cc4)CC3)cc(=O)oc2c1 | inactive: -9.84%
COc1ccccc1NC(=O)CSC1=Nc2ccccc2C2=NC(CC(=O)NCc3ccccc3)C(=O)N12 (stereo not given) | inactive: -5.99%
CCOc1ccc(NC(=O)C2CCCN(c3nnc(C)c4c(C)n(-c5ccccc5)nc34)C2)cc1 (stereo not given) | inactive: -21.2%
Cn1c(=O)c2c(nc(N3CCOCC3)n2Cc2ccc(Br)cc2)n(C)c1=O | inactive: -5.45%
Cc1ccc(CN2CCN(C3CCNCC3)C(=O)C2=O)cc1 | inactive: -9.62%
COc1ccc(NC(=O)C2CCN(c3ccc(Sc4ccc(C)cc4)nn3)CC2)c(OC)c1 | inactive: 0.424%
O=C(CSc1ccc(-c2ccccn2)nn1)Nc1ccc(F)cc1F | inactive: -8.05%
CNS(=O)(=O)c1cn(CC(=O)Nc2ccc(C(C)=O)cc2)cc1S(=O)(=O)NC | inactive: 20%
Cc1ccc(CN2CCN(C3CCN(C(=O)Nc4ccc(C)cc4Cl)CC3)C(=O)C2=O)cc1 | inactive: -3.62%
CC(=O)N1CCc2cc(CNC(=O)c3ccccc3Br)ccc21 | inactive: 20.2%
CCCCNS(=O)(=O)c1ccc(C)c(-c2nnc3c4ccccc4c(C)nn23)c1 | inactive: -14.3%
O=C(NCc1cccs1)C1CCN(C(=O)N2CCOc3ccc(Cl)cc32)CC1 | inactive: -13.3%
CC(=O)N1CCc2cc(S(=O)(=O)NC(Cc3ccccc3)C(=O)NCc3ccc(C)cc3)ccc21 (stereo not given) | inactive: -26.6%
COc1ccc(CCNC(=O)C2CCN(S(=O)(=O)c3c(C)noc3/C=C/c3ccc(C)cc3)CC2)cc1OC | inactive: -6.09%
Nc1ccn(C[C@@H](CO)OCP(=O)(O)O)c(=O)n1 | inactive: 0.766% [at 25.2 µM]
CC(C)CCN(C(=O)Nc1ccccc1)C(C)c1cccs1 (stereo not given) | inactive: -36.4%
Cc1cc(C)c(Cn2c(C3CC(=O)N(c4ccc(F)cc4)C3)nc3ccccc32)c(C)c1 (stereo not given) | inactive: -14.4%
CCOC(=O)c1ccc(NC(=O)CCn2ccc(C)n2)cc1 | inactive: -0.783%

SMILES | activity change, negative = inhibition
COc1cccc(NC(=O)CSc2nc(=O)n(Cc3ccncc3)c3c2CCC3)c1 | inactive: 0%
CCOC(=O)N1CCC2(CC1)OC(=O)C(C)=C2C(=O)NCc1cccc(F)c1 | inactive: -5.03%
Cc1cccc(NC(=O)CN2C(=O)c3cccc4cccc2c34)c1C | inactive: -9.2%
CCCN1CCN(c2ncnc3sc(C(=O)Nc4c(C)cc(C)cc4C)c(C)c23)CC1 | inactive: -9.59%
CCc1ccc(C(=O)c2cn(CC(=O)Nc3ccc(OC)cc3)c3cc4c(cc3c2=O)OCO4)cc1 | inactive: -10%
NC(=O)C1(N2CCCCC2)CCN(C(=O)Nc2ccc(F)cc2F)CC1 | inactive: -2.66%
NS(=O)(=O)c1ccc(NC(=O)C(=O)Nc2ccc3nc4n(c(=O)c3c2)CCCCC4)cc1 | inactive: 13.2%
Cc1cccc(C(=O)N2c3nc(-c4ccco4)nn3C3(CCCCC3)[C@@H]3CCCC[C@@H]32)c1 | inactive: -32%
O=c1ccc(-c2ccccc2)nn1Cc1ccc(F)cc1Cl | inactive: -31.2%
O=C1c2c(O)cc(O)cc2OC(c2ccc(O)c(O)c2)C1O (stereo not given) | inactive: -18.2%
CCOc1ccc2nc(N3CCCC(C(=O)Nc4cc(Cl)c(OC)cc4OC)C3)sc2c1 (stereo not given) | inactive: 6.77%
Cc1c(C(=O)Nc2cccc(-c3nc4ccccc4s3)c2)oc2ccccc12 | inactive: 24.2%
CN(C)CCCOc1nn(Cc2ccccc2)c2ccccc12 | inactive: -22.2%
CCCCCCSc1nnc2c(n1)OC(C)Nc1ccc(Br)cc1-2 (stereo not given) | inactive: -32.1%
COc1ccc(Nc2nccc(NCCO)n2)cc1 | inactive: 35.4%
CCOC(=O)c1ccccc1NC(=O)COc1ccccc1-c1nnc(-c2ccccc2)o1 | inactive: -29.2%
COc1ccc(CNC(=O)c2ccc(NC(=O)N3CCSc4ccccc43)cc2)cc1 | inactive: -8%
COc1cc2c(=O)n(CCC(=O)NCC3CCCO3)c(=O)n(CC(=O)Nc3ccc(C)cc3C)c2cc1OC (stereo not given) | inactive: -7.79%
Cc1ccccc1Cn1c2ccccc2c2cnn(CC(=O)NC3CCC(C)CC3)c(=O)c21 (stereo not given) | inactive: -13.1%
COc1cc(NC(=O)C(CC(C)C)NS(=O)(=O)c2ccc3c(c2)CCN3C(C)=O)cc(OC)c1 (stereo not given) | inactive: -13.8%
